Data as given in the supplement of paper PMC8183993.
“And” between values parts separate entries of the source, which are not always exact repeats. Equal values may be shown once. Where a name gives a salt, the structure may show the parent alone. ± gives the standard deviation of the averaged measurements. Over roughly 3,200 compounds, “nuclei count (viability) relative to DMSO” has its median near 99; the lowest 2% begin near 16. The list shows a part of the results.

tested on: U2OS; test: nuclei count (viability) relative to DMSO (% of DMSO); higher = more viable cells; settings: 10 µM; 24 h
Method: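 Primary image-based screen in U2OS cells: compounds at 10 uM for 24 h, then a 1 h o-propargyl-puromycin (OPP) pulse, click labelling, and high-throughput microscopy. Mean cytoplasmic OPP intensity and nuclei count were normalised to DMSO wells within each plate (DMSO = 100) and averaged over triplicate plates.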

In order of rising nuclei count:
1. O=C(/C=C/c1ccc2ccccc2n1)c1ccncc1  11.3
2. COc1ccc(-c2ccc3ncc4c(c3c2)n(-c2ccc(N3CCNCC3)c(C(F)(F)F)c2)c(=O)n4C)cn1  16.4 ± 5.4
3. CCCCc1nc2cc(/C=C/C(=O)NO)ccc2n1CCN(CC)CC [SB939 (Pracinostat)]  27.5
4. C=CC(=O)Nc1cc(Nc2nccc(-c3cn(C)c4ccccc34)n2)c(OC)cc1N(C)CCN(C)C  33
5. CC(=O)O[C@@]12CO[C@@H]1C[C@H](O)[C@@]1(C)C(=O)[C@H](O)C3=C(C)[C@@H](OC(=O)[C@H](O)[C@@H](NC(=O)OC(C)(C)C)c4ccccc4)C[C@@](O)([C@@H](OC(=O)c4ccccc4)[C@H]21)C3(C)C [Docetaxel]  41
6. CC(=O)O[C@@]12CO[C@@H]1C[C@H](O)[C@@]1(C)C(=O)[C@H](O)C3=C(C)[C@@H](OC(=O)[C@H](O)[C@@H](NC(=O)OC(C)(C)C)c4ccccc4)C[C@@](O)([C@@H](OC(=O)c4ccccc4)[C@H]21)C3(C)C [Docetaxel (Taxotere)]  48
7. CC(C)c1cc(-c2n[nH]c(=O)n2-c2ccc3c(ccn3C)c2)c(O)cc1O [Ganetespib (STA-9090)]  52.1
8. CC1(C)CC(=O)c2c(C(F)(F)F)nn(-c3ccc(C(N)=O)c(N[C@H]4CC[C@H](O)CC4)c3)c2C1  53.5
9. Nc1ccn([C@@H]2O[C@H](CO)[C@@H](O)C2(F)F)c(=O)n1 [Gemcitabine]  54.5
10. COC(=O)C1=C(C)NC(C)=C(C(=O)NCCCN2CCC(c3ccccc3)(c3ccccc3)CC2)C1c1ccc([N+](=O)[O-])cc1 (stereo unspecified)  55.1
11. Nc1ccn([C@@H]2O[C@H](CO)[C@@H](O)C2(F)F)c(=O)n1 [Gemcitabine HCl (Gemzar)]  60.7
12. C=CC(=O)Nc1cccc(Nc2nc(Nc3ccc(Oc4ccnc(C(=O)NC)c4)cc3)ncc2F)c1  63.4
13. Cn1cc(-c2cnn3c(N)c(Br)c([C@@H]4CCCNC4)nc23)cn1  72.5
14. COc1ccc2ccc(=O)oc2c1CC=C(C)C [Osthole (Osthol)]  74.8
15. Nc1cccc2c1C(=O)N(C1CCC(=O)NC1=O)C2=O (stereo unspecified) [Pomalidomide]  75.7
16. CC(C)n1nc(-c2ccc3oc(N)nc3c2)c2c(N)ncnc21  76.12 ± 0.4
17. O=C(Nc1nc2cccc(-c3ccc(CN4CCS(=O)(=O)CC4)cc3)n2n1)C1CC1 [Filgotinib£¬GLPG0643)]  80.6
18. CCCOC(=O)c1cc(O)c(O)c(O)c1 [N-Propyl gallate]  82.9
19. Cc1ccc(CC2(O)CCN(CCOc3ccc(O)cc3)CC2)cc1  87.3
20. CC1(C)[C@H](C(=O)O)N2C(=O)C[C@H]2S1(=O)=O [Sulbactam sodium (Unasyn)]  87.4
21. CC(C)=CC[C@@H](O)C1=CC(=O)c2c(O)ccc(O)c2C1=O [Shikonin]  89.3
22. Oc1ccc(OC2CCCCO2)cc1 (stereo unspecified) [Deoxyarbutin]  91.1
23. CSc1ccc2c(c1)C(N1CCN(C)CC1)Cc1ccccc1S2 (stereo unspecified) [Methiothepin maleate]  91.46 ± 0.13
24. CC(=O)Nc1nc2c(Oc3cc(-c4ccc(C(F)(F)F)cc4)ncn3)cccc2s1  91.5
25. Cc1ncc(CO)c(CO)c1O [Pyridoxine hydrochloride]  91.6
26. C#C[C@]1(OC(C)=O)CC[C@H]2[C@@H]3CCC4=CC(=NO)CC[C@@H]4[C@H]3CC[C@@]21CC (mixture of isomers) [Norgestimate]  93.5
27. O=C(O)C(O)Cc1ccc(O)c(O)c1 (stereo unspecified) [Sodium Danshensu]  93.7
28. CC1=C(/C=C/C(C)=C/C=C/C(C)=C/C(=O)O)C(C)(C)CCC1 [Retinoic acid, all trans]  93.9
29. CN1C[C@@H]2C[C@H]1CN2c1cc2c(cc1F)c(=O)c(C(=O)O)cn2C1CC1 [Danofloxacin Mesylate]  94.6
30. O=C(O)C1CCCN(CCC=C(c2ccccc2)c2ccccc2)C1 (stereo unspecified)  95.2
31. CC(C(=O)O)c1ccc2c(c1)Cc1cccnc1O2 (stereo unspecified) [Pranoprofen]  95.3
32. Cc1ccc(O)c(N=Nc2ccccc2)n1  97.6
33. O=C(O)COCCN1CCN(C(c2ccccc2)c2ccc(Cl)cc2)CC1 (stereo unspecified) [Cetirizine dihydrochloride]  97.8 ± 2.9
34. Clc1ccc(CO/N=C(\Cn2ccnc2)c2ccc(Cl)cc2Cl)c(Cl)c1 [Oxiconazole Nitrate]  97.9
35. COc1cc2nc(N(C)CCCNC(=O)C3CCCO3)nc(N)c2cc1OC (stereo unspecified) [Alfuzosin hydrochloride]  98.1
36. CCCCCC#CCC#CCC#CCC#CCCCC(=O)O [5,8,11,14-Eicosatetraynoic acid]  98.5
37. COC(=O)C1=C(C)NC(C)=C(C(=O)OCCN2CCN(C(c3ccccc3)c3ccccc3)CC2)C1c1cccc([N+](=O)[O-])c1 (stereo unspecified) [Manidipine (Manyper)]  98.6
38. C=C1C[C@@]2(O)O[C@@]3(C[C@H]2C(C)C)[C@@H](C)CC[C@@H]13 [Curcumol]  98.9
39. N=C(N)Nc1ccc(C(=O)Oc2ccc3cc(C(=N)N)ccc3c2)cc1 [Nafamostat mesylate]  99.1
40. NC(=O)CNCCC(c1ccccc1)c1ccccc1 [N20C hydrochloride]  99.4
41. CCCSc1nc(N[C@@H]2C[C@H]2c2ccc(F)c(F)c2)c2nnn([C@@H]3C[C@H](OCCO)[C@@H](O)[C@H]3O)c2n1 [Ticagrelor]  99.4
42. O=C(O)Cc1nn(Cc2ccc(Br)cc2F)c(=O)c2ccccc12 [Statil]  99.8
43. CC(=O)Oc1ccccc1C(=O)O [Acetylsalicylic acid]  99.9
44. COc1ccc([C@@H]2CC(=O)c3c(O)cc(O[C@@H]4O[C@H](CO[C@@H]5O[C@@H](C)[C@H](O)[C@@H](O)[C@H]5O)[C@@H](O)[C@H](O)[C@H]4O)cc3O2)cc1O [Hesperidin]  100 ± 1.3
45. O=C(/C=C/c1ccccc1)NC(NC(=S)Nc1cccc2cccnc12)C(Cl)(Cl)Cl (stereo unspecified) [Salubrinal]  100
46. N[C@@H](CCC(=O)N[C@@H](CS)C(=O)NCC(=O)O)C(=O)O [Glutathione]  101
47. CCc1c(C)[nH]c2c1C(=O)C(CN1CCOCC1)CC2 (stereo unspecified) [Molindone hydrochloride]  101
48. CC(=O)O[C@]1(C(C)=O)CC[C@H]2[C@@H]3C=C(Cl)C4=CC(=O)[C@@H]5C[C@@H]5[C@]4(C)[C@H]3CC[C@@]21C [Cyproterone acetate]  101 ± 4.3
49. COc1cccc(CCc2ccccc2OCC[C@@H]2C[C@@H](O)CN2C)c1  101
50. N[C@@H]1CONC1=O [D-cycloserine]  101
51. C[N+]1(C)[C@@H]2C[C@@H](OC(=O)C(O)(c3cccs3)c3cccs3)C[C@H]1[C@@H]1O[C@@H]12 [Tiotropium Bromide hydrate]  102
52. CC(=O)Nc1ccccc1 [Acetanilide (Antifebrin)]  102
53. CCCCNC(=O)[C@@H]1Cc2ccccc2N1C(=O)[C@@H](N)CC [Butabindide oxalate]  102
54. NC(=O)c1cc[n+](CC2=C(C(=O)[O-])N3C(=O)[C@@H](NC(=O)[C@@H](c4ccccc4)S(=O)(=O)O)[C@H]3SC2)cc1 [Cefsulodin sodium salt]  102
55. C#Cc1cccc(Nc2ncnc3cc4c(cc23)OCCOCCOCCO4)c1 [Icotinib]  102.5 ± 0.67
56. C[N+]1(C)[C@@H]2CC[C@H]1C[C@@H](OC(=O)C(O)c1ccccc1)C2 (stereo partly specified) [Homatropine Methylbromide]  103
57. CC1=C(/C=C/C(C)=C/C=C/C(C)=C/C(=O)O)C(C)(C)CCC1 [Retinoic Acid]  103
58. CN1CCc2cc(Cl)c(O)cc2[C@@H](c2ccccc2)C1  103
59. N[C@@H](Cc1c[nH]c2ccc(O)cc12)C(=O)O [5-hydroxytryptophan (5-HTP)]  104
60. Clc1ccc(Cn2c(CN3CCCC3)nc3ccccc32)cc1 [Clemizole hydrochloride]  104
61. C[C@]12CC[C@H](O)CC1=CC[C@@H]1[C@@H]2CC[C@]2(C)C(n3cnc4ccccc43)=CC[C@@H]12 [Galeterone (TOK-001)]  105
62. N=C(N)NC(=O)Cc1c(Cl)cccc1Cl [Guanfacine hydrochloride]  105 ± 5.4
63. O=C(NCCCN1CCC2(CC1)OCc1ccccc12)[C@H]1CCCN1Cc1ccccc1  105
64. COC(=O)C[C@H](NC(=O)[C@H](C)NC(=O)[C@@H](NC(=O)OCc1ccccc1)C(C)C)C(=O)CF  106
65. N=C(N)NS(=O)(=O)c1ccc(N)cc1 [Sulfaguanidine]  106
66. CC1=C(/C=C/C(C)=C/C=C/C(C)=C/C(=O)O)C(C)(C)CCC1 [Retinoic acid]  106 ± 6.2
67. c1ccc(-c2[nH]ncc2-c2ccnc3ccccc23)nc1  106
68. COC(c1ccccc1)(c1ccccc1)[C@H](Oc1nc(C)cc(C)n1)C(=O)O [Ambrisentan]  107 ± 3.6
69. CCC1(c2ccccc2)NC(=O)N(C)C1=O (stereo unspecified) [Mephenytoin]  107
70. CNS(=O)(=O)CCc1ccc2[nH]cc(C3CCN(C)CC3)c2c1 [Naratriptan HCl]  108
71. CC1(C)[C@H](C(=O)O)N2C(=O)C[C@H]2S1(=O)=O [Sulbactam]  108
72. NC(N)=Nc1ccc(Cl)cc1 [4-Chlorophenylguanidine hydrochloride]  108
73. Cc1c(C)c2c(c(C)c1O)CCC(C)(COc1ccc(CC3SC(=O)NC3=O)cc1)O2 (stereo unspecified) [Troglitazone]  110 ± 1.9
74. O=C(O)/C=C/c1ccc(O)c(O)c1 [Caffeic acid]  110
75. O=C1Nc2ccccc2/C1=C1/Nc2ccccc2C1=O [Indirubin]  110

`O=C(O)c1ccc(-c2c[nH]c3ncc(-c4ccccc4)cc23)cc1C1CCCC1` was tested, and the nuclei count was 74.3 and 67.3.
